The other results are listed elsewhere or left out. These are enrichments in a pooled selection; single values are uncertain.
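Also: S2-R+ lysate came from cells stably expressing FLAG-tagged AGO2, enrichment per 5N variant computed with FASTAptamer, reads lacking the constant 3′ segment discarded.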

This experiment relates to Drosophila AGO1 (endogenous, S2-R+ lysate). In words: AGO1 loading enrichment factor (IP read count / input read count, not library-size normalised) (ratio); higher = more efficient loading into AGO1. As to conditions: randomized region: 5' 5N of miR-317 loop. As for the experimental part: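 HISSA: 5'-phosphorylated, 32P-labelled 20-nt ssRNA oligos (miR-317 loop, first 5 nt randomized, constant 3' part TGAAATGCAAGCAAG as printed in methods; DNA letters for RNA) incubated 1 h at 25°C in S2-R+ cell lysate. Endogenous AGO1 was immunopurified with anti-AGO1 and bound oligos were sequenced after splinted ligation.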
As for ATGCTTGAAATGCAAGCAAG, the “AGO1 loading enrichment factor” value was determined as 0.272.

CTGGGTGAAATGCAAGCAAG: the “AGO1 loading enrichment factor” value was 0.238.

On to GCAGGTGAAATGCAAGCAAG, for which the “AGO1 loading enrichment factor” value came out at 0.041.

On to CCTTGTGAAATGCAAGCAAG, for which the “AGO1 loading enrichment factor” value was determined as 0.0109.

As for ATCCTTGAAATGCAAGCAAG, the “AGO1 loading enrichment factor” value worked out at 0.0418.

Regarding GAGCGTGAAATGCAAGCAAG, the “AGO1 loading enrichment factor” value was found to be 0.107.

For GCGGGTGAAATGCAAGCAAG, the “AGO1 loading enrichment factor” value came to 0.231.

With CGTAATGAAATGCAAGCAAG, the “AGO1 loading enrichment factor” value was 0.0961.

Consider TATCTTGAAATGCAAGCAAG, for which the “AGO1 loading enrichment factor” value stood at 0.676.

Take ATAGTTGAAATGCAAGCAAG: the “AGO1 loading enrichment factor” value worked out at 0.215.

As for CCATGTGAAATGCAAGCAAG, the “AGO1 loading enrichment factor” value was found to be 0.0907.

In the case of ATATCTGAAATGCAAGCAAG, the “AGO1 loading enrichment factor” value was 0.136.

As to CCACATGAAATGCAAGCAAG, the “AGO1 loading enrichment factor” value came to 0.0436.

In the case of CTGACTGAAATGCAAGCAAG, the “AGO1 loading enrichment factor” value amounted to 0.152.

As for GTTGATGAAATGCAAGCAAG, the “AGO1 loading enrichment factor” value was 0.119.

On to AGTTTTGAAATGCAAGCAAG, for which the “AGO1 loading enrichment factor” value was determined as 0.0932.

Regarding TAGCTTGAAATGCAAGCAAG, the “AGO1 loading enrichment factor” value was determined as 0.881.

Take ACTGATGAAATGCAAGCAAG: the “AGO1 loading enrichment factor” value was 0.209.

In the case of TATTATGAAATGCAAGCAAG, the “AGO1 loading enrichment factor” value is 0.343.

For the sequence CTTGTTGAAATGCAAGCAAG, the “AGO1 loading enrichment factor” value is 0.00846.

Consider AAGTATGAAATGCAAGCAAG, for which the “AGO1 loading enrichment factor” value was 0.124.

For the sequence CTGTCTGAAATGCAAGCAAG, the “AGO1 loading enrichment factor” value is 0.29.

For GAAGCTGAAATGCAAGCAAG, the “AGO1 loading enrichment factor” value is 0.0371.

Take TGTGTTGAAATGCAAGCAAG: the “AGO1 loading enrichment factor” value came out at 0.1.

In the case of CGCCGTGAAATGCAAGCAAG, the “AGO1 loading enrichment factor” value is 0.0762.

Regarding AGTGCTGAAATGCAAGCAAG, the “AGO1 loading enrichment factor” value is 0.042.

For GACGATGAAATGCAAGCAAG, the “AGO1 loading enrichment factor” value was 19.5.

For TCTGTTGAAATGCAAGCAAG, the “AGO1 loading enrichment factor” value was 0.564.

For AGGTGTGAAATGCAAGCAAG, the “AGO1 loading enrichment factor” value amounted to 0.323.

Turning to GAGTTTGAAATGCAAGCAAG, the “AGO1 loading enrichment factor” value came to 0.0989.

With CAGAGTGAAATGCAAGCAAG, the “AGO1 loading enrichment factor” value worked out at 0.168.

In the case of TGAGATGAAATGCAAGCAAG, the “AGO1 loading enrichment factor” value was 0.137.

Take GTGATTGAAATGCAAGCAAG: the “AGO1 loading enrichment factor” value came to 0.236.

ACTCCTGAAATGCAAGCAAG: the “AGO1 loading enrichment factor” value was determined as 0.559.

Turning to GGTGATGAAATGCAAGCAAG, the “AGO1 loading enrichment factor” value amounted to 1.02.

Take CAGCTTGAAATGCAAGCAAG: the “AGO1 loading enrichment factor” value turned out to be 0.

With ACCACTGAAATGCAAGCAAG, the “AGO1 loading enrichment factor” value was determined as 0.0688.

On to ATCTGTGAAATGCAAGCAAG, for which the “AGO1 loading enrichment factor” value is 0.141.

On to TTCTATGAAATGCAAGCAAG, for which the “AGO1 loading enrichment factor” value was found to be 0.268.

CTGTGTGAAATGCAAGCAAG: the “AGO1 loading enrichment factor” value was determined as 0.00624.

With AGCTTTGAAATGCAAGCAAG, the “AGO1 loading enrichment factor” value amounted to 0.0714.

As for AGATCTGAAATGCAAGCAAG, the “AGO1 loading enrichment factor” value amounted to 0.123.

On to AACTTTGAAATGCAAGCAAG, for which the “AGO1 loading enrichment factor” value turned out to be 0.115.

Take TCTTGTGAAATGCAAGCAAG: the “AGO1 loading enrichment factor” value was found to be 0.491.

Turning to GATTCTGAAATGCAAGCAAG, the “AGO1 loading enrichment factor” value came to 0.176.

Take GTGTTTGAAATGCAAGCAAG: the “AGO1 loading enrichment factor” value came to 0.0268.

As to TTAAGTGAAATGCAAGCAAG, the “AGO1 loading enrichment factor” value was found to be 0.324.

Take GTCAATGAAATGCAAGCAAG: the “AGO1 loading enrichment factor” value worked out at 0.165.

Consider ATCCGTGAAATGCAAGCAAG, for which the “AGO1 loading enrichment factor” value was determined as 0.185.

Regarding TGGTTTGAAATGCAAGCAAG, the “AGO1 loading enrichment factor” value is 0.0783.

Turning to CCAGATGAAATGCAAGCAAG, the “AGO1 loading enrichment factor” value worked out at 0.139.

On to AACTGTGAAATGCAAGCAAG, for which the “AGO1 loading enrichment factor” value worked out at 0.11.

As for AAGCTTGAAATGCAAGCAAG, the “AGO1 loading enrichment factor” value was 0.00617.

As for CGCGGTGAAATGCAAGCAAG, the “AGO1 loading enrichment factor” value turned out to be 0.104.

(Values after the supplement of paper PMC6451100.)
